The record followed here is PMC9911399, “Two distinct binding modes provide the RNA-binding protein RbFox with extraordinary sequence specificity”.

Numbering of substitutions follows the chain as printed; changes in the protein carry UniProt numbers. Some of the results follow.

To fix the notation:
B1: ACAAAUU (DNA:RNA)
RNA: GGGAGACCGGAAUUCAGAUUGUCCACAAAUUUUAAAUCCCGUCGUAGCCACCA
DNA 1: CAATCTGAATTCCGGTCTCCC
DNA 2: TGGTGGCTACGACGGGATT
B2: AAACCCC (DNA:RNA)
RNA: B1 RNA with C26A, A28C, A29C, U30C, U31C
DNA 1: CAATCTGAATTCCGGTCTCCC
DNA 2: TGGTGGCTACGACGGGATT
B3: UAGGGAU (DNA:RNA)
RNA: B1 RNA with A25U, C26A, A27G, A28G, A29G, U30A
DNA 1: CAATCTGAATTCCGGTCTCCC
DNA 2: TGGTGGCTACGACGGGATT
B4: ACCGUAA (DNA:RNA)
RNA: B1 RNA with A27C, A28G, A29U, U30A, U31A
DNA 1: CAATCTGAATTCCGGTCTCCC
DNA 2: TGGTGGCTACGACGGGATT
B5: GCUUGAG (DNA:RNA)
RNA: B1 RNA with A25G, A27U, A28U, A29G, U30A, U31G
DNA 1: CAATCTGAATTCCGGTCTCCC
DNA 2: TGGTGGCTACGACGGGATT
B6: ACGAGUG (DNA:RNA)
RNA: B1 RNA with A27G, A29G, U31G
DNA 1: CAATCTGAATTCCGGTCTCCC
DNA 2: TGGTGGCTACGACGGGATT
B7: CUGAAAG (DNA:RNA)
RNA: B1 RNA with A25C, C26U, A27G, U30A, U31G
DNA 1: CAATCTGAATTCCGGTCTCCC
DNA 2: TGGTGGCTACGACGGGATT
B8: UAAUGGG (DNA:RNA)
RNA: B1 RNA with A25U, C26A, A28U, A29G, U30G, U31G
DNA 1: CAATCTGAATTCCGGTCTCCC
DNA 2: TGGTGGCTACGACGGGATT
B9: GAGCGUA (DNA:RNA)
RNA: B1 RNA with A25G, C26A, A27G, A28C, A29G, U31A
DNA 1: CAATCTGAATTCCGGTCTCCC
DNA 2: TGGTGGCTACGACGGGATT
B10: UCAAAGA (DNA:RNA)
RNA: B1 RNA with A25U, U30G, U31A
DNA 1: CAATCTGAATTCCGGTCTCCC
DNA 2: TGGTGGCTACGACGGGATT
B11: UUGUUCG (DNA:RNA)
RNA: GGGAGACCGGAAUUCAGAUUGUCCUUGUUCGUUAAAUCCCGUCGUAGCCACCA
DNA 1: CAATCTGAATTCCGGTCTCCC
DNA 2: TGGTGGCTACGACGGGATT
B12: GUUCCGC (DNA:RNA)
RNA: B11 RNA with U25G, G27U, U28C, U29C, C30G, G31C
DNA 1: CAATCTGAATTCCGGTCTCCC
DNA 2: TGGTGGCTACGACGGGATT
B13: GACGAGC (DNA:RNA)
RNA: B1 RNA with A25G, C26A, A27C, A28G, U30G, U31C
DNA 1: CAATCTGAATTCCGGTCTCCC
DNA 2: TGGTGGCTACGACGGGATT
B14: UGCACCU (DNA:RNA)
RNA: B1 RNA with A25U, C26G, A27C, A29C, U30C
DNA 1: CAATCTGAATTCCGGTCTCCC
DNA 2: TGGTGGCTACGACGGGATT
B15: CUUCGAG (DNA:RNA)
RNA: B11 RNA with U25C, G27U, U28C, U29G, C30A
DNA 1: CAATCTGAATTCCGGTCTCCC
DNA 2: TGGTGGCTACGACGGGATT
B16: CUCCGCU (DNA:RNA)
RNA: B11 RNA with U25C, G27C, U28C, U29G, G31U
DNA 1: CAATCTGAATTCCGGTCTCCC
DNA 2: TGGTGGCTACGACGGGATT
B17: AAUUCCG (DNA:RNA)
RNA: B11 RNA with U25A, U26A, G27U, U29C
DNA 1: CAATCTGAATTCCGGTCTCCC
DNA 2: TGGTGGCTACGACGGGATT
B18: UCGCCUU (DNA:RNA)
RNA: B1 RNA with A25U, A27G, A28C, A29C
DNA 1: CAATCTGAATTCCGGTCTCCC
DNA 2: TGGTGGCTACGACGGGATT
B19: CGCCGUG (DNA:RNA)
RNA: B1 RNA with A25C, C26G, A27C, A28C, A29G, U31G
DNA 1: CAATCTGAATTCCGGTCTCCC
DNA 2: TGGTGGCTACGACGGGATT
B20: UCAGUAA (DNA:RNA)
RNA: B1 RNA with A25U, A28G, A29U, U30A, U31A
DNA 1: CAATCTGAATTCCGGTCTCCC
DNA 2: TGGTGGCTACGACGGGATT

The target of this assay is T1, RBFOX1 RRM RbFoxmut (Fox-RRM*) (Homo sapiens, UniProt Q9NWB1 109-208, R118D;E147R;N151S;E152T).
T1 sequence: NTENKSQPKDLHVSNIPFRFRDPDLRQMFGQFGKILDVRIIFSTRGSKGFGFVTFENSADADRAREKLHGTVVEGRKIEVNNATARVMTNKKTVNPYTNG
Nature of the assay: EMSA; HiTS-Eq, 1 nM pool, 10 min; buffer printed only for the single-RNA assays: 10 mM Tris pH 7.5, 150 mM NaCl, 3.4 mM EDTA, 0.001% NP-40, 30 C. As to conditions: tags: His6 N-terminal (pET28a); label: 5' 32P. The method, boiled down: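 Purified RbFox RRM, wild type or mutant, was incubated for 10 min in 50 µL with 1 nM of a 5′-radiolabelled RNA pool carrying 7 randomized nucleotides, whose flanks were annealed to DNA oligonucleotides, over a series of increasing protein concentrations. Unbound RNA was resolved on 8% native PAGE, cut out, reverse-transcribed, barcoded by PCR and sequenced on an Illumina HiSeq 2500. Relative association constants were derived from changes in read counts for each RNA species versus the control reaction and normalised to the cognate motif.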
A general note: Mobility shift assays separate free from complexed probe on a gel.
Regarding B1, the binding signal is 0.0857 KA relative to UGCAUGU.

Consider B2, for which the binding signal is 0.0644 KA relative to UGCAUGU.

B3: the binding signal was 0.0944 KA relative to UGCAUGU.

B4: the binding signal is 0.117 KA relative to UGCAUGU.

Regarding B5, the binding signal was 0.209 KA relative to UGCAUGU.

Consider B6, for which the binding signal was 0.202 KA relative to UGCAUGU.

As for B7, the binding signal was 0.0652 KA relative to UGCAUGU.

B8: the binding signal is 0.0846 KA relative to UGCAUGU.

Regarding B9, the binding signal is 0.129 KA relative to UGCAUGU.

As for B10, the binding signal is 0.0703 KA relative to UGCAUGU.

As to B11, the binding signal is 0.463 KA relative to UGCAUGU.

Take B12: the binding signal was 0.113 KA relative to UGCAUGU.

With B13, the binding signal was 0.083 KA relative to UGCAUGU.

In the case of B14, the binding signal is 0.169 KA relative to UGCAUGU.

With B15, the binding signal is 0.113 KA relative to UGCAUGU.

Turning to B16, the binding signal is 0.0979 KA relative to UGCAUGU.

As for B17, the binding signal is 0.0878 KA relative to UGCAUGU.

On to B18, for which the binding signal was 0.0678 KA relative to UGCAUGU.

As to B19, the binding signal was 0.141 KA relative to UGCAUGU.

As for B20, the binding signal was 0.126 KA relative to UGCAUGU.
